Consider 52 compounds from PubChem BioAssay AID1347073 (National Center for Advancing Translational Sciences (NCATS), 2019).

The whole screen tested about 45,000 compounds, of which about 200 (0.44%) were called active. Another 7% or so got no clear call; they are omitted. The call rests on the fitted dose curve; in most records, active means well fitted activation curve with a large enough effect; inconclusive means small, poorly fitted or top-dose-only effect; inactive means no such curve, though single readings can be large or run the other way. Some of the results follow.

The nature of this assay: qHTS of TDP-43 Inhibitors: NCGC Sytravon Library Screen. Further: 0% is about no effect; nearly all actives have a fitted effect of over 55% in size. As to conditions: yeast TDP-43 toxicity rescue, BacTiter-Glo growth, 24 h; series mostly up to 46.1 µM; growth rescue (activation): at the top concentration. Put shortly: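 TDP-43-expressing yeast, pregrown in raffinose, seeded at OD600 0.02 in galactose medium with compound for 24 hr at 30 deg C. Growth read by BacTiter-Glo luminescence, so rescue of toxicity appears as activation.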
(In general: In qHTS, concentration-response curves come from the screen itself.)
With `CC(C)(C)c1cc[n+](-c2[nH]c(=O)sc2/C=N/NC([S-])=Nc2ccccc2)cc1`, the “growth rescue (activation)” value is inactive: 6.45%.

Turning to `CS(=O)(=O)n1nc(NCc2cccs2)nc1NCc1cccs1`, the “growth rescue (activation)” value is inactive: 15.2%.

As for `CC(C)N(CCNC(=O)c1ccc(OCC2CCCO2)cc1)C(C)C` (configuration not stated), the “growth rescue (activation)” value was inactive: -1.49%.

On to `CCOC(=O)CCC(=O)OCC(=O)NC(C)C1CC2CCC1C2` (configuration not stated), for which the “growth rescue (activation)” value was inactive: 16.9%. To `COc1ccccc1-n1cnnc1SCC(=O)NCc1cccs1` belongs inactive: -7.7%.

As to `Cc1ccc(S(=O)(=O)N2CCN(C(C)C)CC2)cc1`, the “growth rescue (activation)” value was inactive: -13.4%. Take `COc1ccc(C(C(=O)NC2CCCC2)N(C(=O)c2snc(C(N)=O)c2N)c2cc(C)ccc2OC)cc1OC` (configuration not stated): the “growth rescue (activation)” value is inactive: 5.86%.

In the case of `CC1SC(c2ccc(F)cc2)N(CCc2ccccc2)C1=O` (configuration not stated), the “growth rescue (activation)” value is inactive: 17.4%. As for `COc1ccc(CCNC(=O)COc2ccc(-c3ccc(C#N)cc3)cc2)cc1`, the figure is inactive: -16%; as for `Cc1ccc(NC(=O)NCc2ccccn2)cc1`, inactive: -2.52%. `O=c1c2cc3c(nc2[nH]c(=S)n1-c1ccccc1)CCCC3`: the “growth rescue (activation)” value was inactive: 2.34%. As to `O=C(CCCN1C(=O)c2ccccc2C1=O)N1CCOCC1`, the “growth rescue (activation)” value was inactive: 21.8%. With `O=C(O)c1ccccc1-n1c(-c2ccccc2)cc2c1CCCC2=O`, the “growth rescue (activation)” value is inactive: 6.09%. Consider `COc1cc(/C=N/NC(=O)CCn2nnc3ccccc32)ccc1O`, for which the “growth rescue (activation)” value is inactive: -2.08%. On to `O=C(COC(=O)C1C2CC3OC(=O)C1C3C2)Nc1ccccc1` (configuration not stated), for which the “growth rescue (activation)” value is inactive: -14.7%. To `O=C(Nc1cc(=O)[nH]c2ncnn12)c1ccc(Cl)cc1Cl` belongs inactive: -5.55%. As for `N#C/C(=C/c1ccc(-c2ccccc2)o1)c1nc(-c2cccs2)cs1`, the “growth rescue (activation)” value was inactive: 10.4%. `CCCCn1c(=O)c(CCC(=O)OC(C)C(=O)Nc2cccc(Cl)c2Cl)nc2ccccc21` (configuration not stated): the “growth rescue (activation)” value was inactive: 8.88%. As to `CC1Cc2ccccc2N1C(=O)CSc1nncn1C` (configuration not stated), the “growth rescue (activation)” value was inactive: 0.929%. On to `CCOc1ccc(NC(=O)COc2ccc(S(=O)(=O)N3CCOCC3)cc2)cc1`, for which the “growth rescue (activation)” value was inactive: 2.6%. As for `COc1cc2c(cc1NC(=O)C(C)Sc1cccc[n+]1[O-])oc1ccccc12` (configuration not stated), the figure is inactive: 21.7%; as for `COC(=O)CN1C(c2cccc(Cl)c2)=Nc2ccc(Cl)cc2C1c1ccccc1` (configuration not stated), inactive: -2.64%; as for `CC(=O)c1ccc(S(=O)(=O)N2CCN(C(=O)c3ccc(COc4ccccc4)o3)CC2)cc1`, inactive: 21.4%. `COc1ccc(NS(=O)(=O)c2cc(NC(=O)c3nn(C)c(=O)c4ccccc34)ccc2OC)cc1`: the “growth rescue (activation)” value was inactive: 13.3%.

`Cc1cc(C)c2nc(-c3ccccn3)cc(C(=O)NCCc3ccc(S(N)(=O)=O)cc3)c2c1`: the “growth rescue (activation)” value is inactive: 15.4%. In the case of `O=C(Nc1ccc2c(c1)OCO2)C1CC(c2ccccc2O)=NO1` (configuration not stated), the “growth rescue (activation)” value is inactive: 5.16%. Regarding `O=C(N/N=C/c1cccc(O)c1)C(=O)N1CCCCCC1`, the “growth rescue (activation)” value is inactive: 1.56%. As for `O=C(c1ccccc1)N1CCN(c2ccc([N+](=O)[O-])c(N3CCOCC3)c2)CC1`, the “growth rescue (activation)” value is inactive: -0.654%. For `CN(c1ncc(C(F)(F)F)cc1Cl)N1C(=O)c2cccc(N)c2C1=O`, the “growth rescue (activation)” value is inactive: 10.3%.

Regarding `Cc1cccc(N(C(=O)c2csnn2)C(C(=O)NC2CCCCC2)c2ccccn2)c1C` (configuration not stated), the “growth rescue (activation)” value was inactive: -24.6%.

On to `CC(C)(C)c1ccc(-c2cn(-c3ccc(Br)cc3)c3[n+]2CCCS3)cc1`, for which the “growth rescue (activation)” value is inactive: 9.75%. To `CCN(CC(=O)Nc1ccccc1SC)Cc1nc2ccccc2c(=O)[nH]1` belongs inactive: -2.68%; to `CC1Cc2ccccc2N1CC(=O)c1c(N)n(Cc2ccccc2)c(=O)n(C)c1=O` (configuration not stated), inactive: 2.42%.

As to `CCN(c1ccccc1)S(=O)(=O)c1ccc(Cl)c(NC(=O)COC(=O)C2CC2C)c1` (configuration not stated), the “growth rescue (activation)” value was inactive: 18.5%. For the compound `COCCC1CCCCN1C(=O)c1cc(COc2ccc(C)nc2)on1` (configuration not stated), the “growth rescue (activation)” value is inactive: 4.07%. To `CC(=O)Nc1ccc(NC(=O)C(C)OC(=O)CNS(=O)(=O)c2cccc(Cl)c2)cc1` (configuration not stated) belongs inactive: 4.71%.

In the case of `CCOc1ccc(N2CC(C(=O)N3CCCc4ccccc43)CC2=O)cc1` (configuration not stated), the “growth rescue (activation)” value was inactive: 18.7%.

For the compound `CC(C)(C)C(=O)/C=c1\[nH]c(=O)/c(=C\c2ccccc2F)s1`, the “growth rescue (activation)” value was inactive: 9.63%. In the case of `O=S(=O)(c1ccc2ccccc2c1)N1CCN(CCO)CC1`, the “growth rescue (activation)” value was inactive: -6.62%. With `O=C(Nc1ccccc1-c1ccccc1)C1CCCC1`, the “growth rescue (activation)” value is inactive: 22.9%.

On to `Cc1nn(-c2ccccc2)c(C)c1/C=C/C(=O)OCC(=O)Nc1ncc(Cl)cc1Cl`, for which the “growth rescue (activation)” value is inactive: 7.71%.

For `CCCCC(C(=O)O)C(C)CC(=O)Nc1ccn(-c2ccccc2)n1` (configuration not stated), the “growth rescue (activation)” value was inactive: 31.4%.

Regarding `CCSc1nnc(NC(=O)C2CC(=O)N(Cc3ccc(C)cc3)C2)s1` (configuration not stated), the “growth rescue (activation)” value was inactive: -0.728%. Turning to `COc1ccc(C(=O)Nc2ccccc2-c2nnn(CC(N)=O)n2)cc1`, the “growth rescue (activation)” value was inactive: 0.865%. Regarding `CC(=O)C(Cc1ccccc1)NC(=O)CN1CCN(Cc2ccccc2)CC1` (configuration not stated), the “growth rescue (activation)” value is inactive: 12.9%. `NS(=O)(=O)c1ccc(NC(=S)Nc2ccc(OCc3ccccc3)cc2)cc1`: the “growth rescue (activation)” value was inactive: -7.39%.

With `Nc1ccc(-c2nc3ccc(C(=O)O)cc3s2)cc1`, the “growth rescue (activation)” value is inactive: 19.2%. As for `Cc1ccc(NC(=O)C(OC(=O)c2ccc(F)cc2)c2ccccc2)cc1Cl` (configuration not stated), the figure is inactive: -9.79%; as for `CCCCN(C(=O)CCC(=O)Nc1cc(C)on1)C(C(=O)NC(C)(C)C)c1ccccc1Cl` (configuration not stated), inactive: 13.9%. `COC(=O)c1sc(NC(=O)c2ccc3c(c2)OCO3)c(C#N)c1C`: the “growth rescue (activation)” value is inactive: 0.0062%. Consider `Cc1cccnc1CNC(=O)C1(C)CCCN1CC(C)C` (configuration not stated), for which the “growth rescue (activation)” value was inactive: -4.95%. With `COc1ccc([N+](=O)[O-])cc1NC(=O)c1cn(-c2ccc(Cl)cc2)c(=O)c2ccccc12`, the “growth rescue (activation)” value was inactive: -6.62%.
